# From ChEMBL document CHEMBL4888484, “Replenishing the malaria drug discovery pipeline: Screening and hit evaluation of the MMV Hit Generation Library 1 (HGL1) against asexual blood stage Plasmodium falciparum ,using a nano luciferase reporter read-out” (2022)
# The whole screen tested about 150,000 compounds, of which about 540 (0.36%) showed an effect of 50% or more. The list shows a part of the results.
# Test system: Plasmodium falciparum
# Assay: Primary screen in NF54 nanoGlo assay, in single point, at 2uM, 72h; a lower Z score goes with more inhibition
# Type: functional, Erythrocyte
# Conditions: timepoint 72 hour
Structure (SMILES),% Inhibition [%],Z score
O=C1[C@@H](n2nc3ccccn3c2=O)CCN1CC(F)(F)F,4,-0.59
O=C(NCC(=O)N(Cc1ccco1)C1(C(=O)NC2CCCC2)CCCCC1)c1ccccc1,15,-2.34
Cc1ccc2nc(N3CCC[C@H](O)C3)c(CN3CCN(C)CC3)cc2c1,-17,2
CN(CC(=O)N1CCc2ccccc21)C1C2CCOC2C1(C)C (configuration not stated),5,-0.73
CN(Cc1ccccn1)Cc1ccnn1C,-14,1.55
CC1CCN(c2nc3c(c(Oc4ccc(F)cc4)n2)CN(S(=O)(=O)c2ccc(F)cc2)CC3)CC1,-4,0.7
CCOc1ccc(-c2c(C)n[nH]c2NC(=O)[C@H]2CCCN(S(=O)(=O)N3CCCC3)C2)cc1OCC,3,-0.49
COc1ccc(Cc2n[nH]c3c2CN(Cc2ccc(CO)o2)CC3)cc1,-24,2.07
CC(C)N1CC[C@H](NCc2cnc(N3CCOCC3)nc2)C1,3,-0.43
CC(C)C[C@@H]1NC(=O)[C@H](Cc2c[nH]c3ccccc23)NC1=O,2,-0.31
COCCn1cnc2c(-c3ccccc3)cn(CC(=O)Nc3ccc(C(C)C)cc3)c2c1=O,-6,0.92
Cc1nnsc1CN(C)C[C@@H]1[C@H]2CN(C(=O)N3CCOCC3)C[C@@H]12,-11,2
O=C(NC1CCCCC1O)C1=CCCC1 (configuration not stated),-21,2.13
Brc1ccc(C2(c3nc(-c4cnccn4)no3)CCOCC2)cc1,-10,1.55
CC(C)CN1CC[C@H](N2CCN(c3ccccc3F)CC2)[C@H](CCC(=O)O)C1,7,-1.03
CCC(C)(C)NC(=O)c1cc(Cl)ccc1Cl,-13,2.08
C[C@@H](CN1CCCCC1)NC(=O)Nc1nc(C(F)(F)F)cs1,33,-4.26
COc1ccc(C2=NN(C(=O)CN3CCC4(CC3)OCCO4)[C@H](c3ccc(C)cc3C)C2)cc1,-5,0.71
CN1CC[C@H](N(C)C(=O)Nc2cccc(-c3cscn3)c2)C1,-2,0.41
NC1(c2ccccc2F)Cc2ccccc2C1,2,-0.24
Nc1cc(C(=O)N2CCOCC2)ccc1Nc1ccccc1,-6,0.76

Structure (SMILES),% Inhibition [%],Z score
Cc1nc(CNC(=O)NCC(C)(C)C(C)C)no1,-11,1.14
Cc1ccc(NC(=O)c2ccoc2C2(O)CCOCC2)c(C)n1,-11,1.8
O=C(NCc1ccc(S(=O)(=O)N2CCOCC2)s1)C1CC2CCC1C2 (configuration not stated),-15,2.74
COC(=O)C(C)(C)[C@H]1CCCN(C(=O)Cc2ccn[nH]2)C1,0,-0.02
COc1cccc(-c2nc3c(cnn3Cc3cccc(Cl)c3)[nH]2)c1O,-10,1.41
Cc1cc(N2CCc3ccccc3C2)n2nc(-c3ccco3)nc2n1,-10,1.14
Cc1noc(C)c1CN[C@H](c1cccs1)C(C)(C)C,0,-0.05
Cc1n[nH]cc1CN[C@H](c1nccn1C)C1CC1,-19,2.8
C#CCNC(=O)c1cc(Br)ccc1F,-16,1.49
CCNC(=O)N1CCN(c2nc(-c3ccncc3)nc(C)c2C)CC1,-11,1.37
Cc1cc(C)c2c(c1)C(NC1CCOC(C3CC3)C1)CCCO2 (configuration not stated),14,-1.94
O=C(NCCc1c[nH]cn1)Nc1cccc2c1CCCC2,-2,0.29
Cn1nccc1S(=O)(=O)NC[C@@H]1C[C@H]1C1CCCCC1,-3,0.52
Cc1ccc([C@@H]2CC(c3cccn3C)=NN2C(=O)CN(CCN2CCOCC2)C(=O)c2ccccc2F)cc1,-5,0.82
COc1ccc2c(c1)C(N1CCCN(C(=O)c3ccc(Cl)cc3)CC1)=Nc1ccccc1O2,-7,1.14
CCN1CC(C(=O)NC(C)c2cc3cc(Cl)ccc3o2)CC1=O (configuration not stated),3,-0.59
CN1CCN(c2cnn(Cc3c(F)cccc3C(F)(F)F)c(=O)c2)CC1,-16,1.76
Fc1cnccc1NCCCOC1CCCC1,-3,0.37
CCOc1ccc(N(CC(=O)N2CC(=O)Nc3ccccc32)S(C)(=O)=O)cc1,-14,2.53
O=C1C[C@H](C(=O)N2CCC3(CCC(=O)N(Cc4ccco4)C3)CC2)CN1,-5,0.88
